Results on 21 test systems are retold here after the supplement of paper PMC11055344.

Usually MIC stands for the lowest concentration that inhibits growth of the organism.

Compound in assay [1]: CC1(C)S[C@@H]2[C@H](NC(=O)[C@H](N)c3ccc(O)cc3)C(=O)N2[C@H]1C(=O)O [amoxicillin]
The experiment in a line: Broth microdilution. Background: Broth dilution looks for growth in wells or tubes with falling amounts of substance.

Compound in assay [2]: CC1(C)S[C@@H]2[C@H](NC(=O)Cc3ccccc3)C(=O)N2[C@H]1C(=O)O [penicillin G]
Description: Broth microdilution.

MIC of nasopharyngeal S. pneumoniae isolates by broth microdilution (range and time not stated); higher = less susceptible. No active / inactive call per row; the paper counts penicillin above 0.06 and amoxicillin above 0.5 mg/L as non-susceptible (EUCAST). The lowest value, 0.01, is taken as the floor ('<='); the source prints it plain. Penicillin G is assumed for 'penicillin'. Isolates are numbered anew. PBP alleles are the type numbers of penicillin-binding proteins 1a, 2b and 2x; equal numbers mean equal sequences.

For “Streptococcus pneumoniae isolate 1 (PBP alleles 1a 2b 2x: 2_0_6, serotype: 33F)”, the minimum inhibitory concentration (MIC) in assay [1] and in assay [2] was at most 0.01 µg/mL in each case.

For “Streptococcus pneumoniae isolate 2 (PBP alleles 1a 2b 2x: 2_0_0, serotype: 19F)”, the figures for the MIC in assay [1] and in assay [2] were at most 0.01 µg/mL and 0.03 µg/mL, respectively.

On to “Streptococcus pneumoniae isolate 3 (PBP alleles 1a 2b 2x: 0_0_53, serotype: 10A)”, for which the MIC in assay [1] is at most 0.01 µg/mL; in assay [2] it was 0.03 µg/mL.

As to “Streptococcus pneumoniae isolate 4 (PBP alleles 1a 2b 2x: 2_0_6, serotype: 23A)”, the minimum inhibitory concentration (MIC) in assay [1] and in assay [2] was at most 0.01 µg/mL throughout.

As to “Streptococcus pneumoniae isolate 5 (PBP alleles 1a 2b 2x: 0_0_3, serotype: 35F)”, the results for the MIC in assay [1] and in assay [2] were at most 0.01 µg/mL and 0.03 µg/mL, respectively.

Consider “Streptococcus pneumoniae isolate 6 (PBP alleles 1a 2b 2x: 24_27_28, serotype: 15A)”, for which the MIC in assay [1] came to 0.03 µg/mL; in assay [2] it was 0.25 µg/mL.

Take “Streptococcus pneumoniae isolate 7 (PBP alleles 1a 2b 2x: 2_0_2, serotype: 21)”: the MIC in assay [1] and in assay [2] was at most 0.01 µg/mL in each case.

On to “Streptococcus pneumoniae isolate 8 (PBP alleles 1a 2b 2x: 2_6_0, serotype: 11A)”, for which the MIC in assay [1] was at most 0.01 µg/mL; in assay [2] it was 0.03 µg/mL.

“Streptococcus pneumoniae isolate 9 (PBP alleles 1a 2b 2x: 1_2_2, serotype: 22F)”: the MIC in assay [1] and in assay [2] was at most 0.01 µg/mL in each case.

Consider “Streptococcus pneumoniae isolate 10 (PBP alleles 1a 2b 2x: 2_0_6, serotype: 23A)”, for which the MIC in assay [1] and in assay [2] was 0.03 µg/mL throughout.

Take “Streptococcus pneumoniae isolate 11 (PBP alleles 1a 2b 2x: 2_0_2, serotype: 21)”: the minimal inhibitory concentration (MIC) in assay [1] was at most 0.01 µg/mL; in assay [2], 0.03 µg/mL.

As for “Streptococcus pneumoniae isolate 12 (PBP alleles 1a 2b 2x: 1_0_0, serotype: 15B/C)”, the minimum inhibitory concentration (MIC) in assay [1] and in assay [2] was at most 0.01 µg/mL each time.

As for “Streptococcus pneumoniae isolate 13 (PBP alleles 1a 2b 2x: 2_6_0, serotype: 11A)”, the MIC in assay [1] and in assay [2] was at most 0.01 µg/mL each time.

For the test system “Streptococcus pneumoniae isolate 14 (PBP alleles 1a 2b 2x: 1_0_0, serotype: 15A)”, the MIC in assay [1] and in assay [2] was 0.03 µg/mL each time.

On to “Streptococcus pneumoniae isolate 15 (PBP alleles 1a 2b 2x: 78_0_0, serotype: Serogroup 24)”, for which the MIC in assay [1] and in assay [2] was at most 0.01 µg/mL each time.

As to “Streptococcus pneumoniae isolate 16 (PBP alleles 1a 2b 2x: 2_0_3, serotype: 7C)”, the MIC in assay [1] and in assay [2] was at most 0.01 µg/mL throughout.

“Streptococcus pneumoniae isolate 17 (PBP alleles 1a 2b 2x: 1_0_0, serotype: 15A)”: the MIC in assay [1] and in assay [2] was at most 0.01 µg/mL in each case.

“Streptococcus pneumoniae isolate 18 (PBP alleles 1a 2b 2x: 2_3_2, serotype: 3)”: the MIC in assay [1] worked out at 0.06 µg/mL; in assay [2], 0.03 µg/mL.

As to “Streptococcus pneumoniae isolate 19 (PBP alleles 1a 2b 2x: 23_4_77, serotype: 12F)”, the MIC in assay [1] is 0.03 µg/mL; in assay [2], 0.06 µg/mL.

Regarding “Streptococcus pneumoniae isolate 20 (PBP alleles 1a 2b 2x: 12_0_0, serotype: 31)”, the results for the MIC in assay [1] and in assay [2] were at most 0.01 µg/mL and 0.03 µg/mL, respectively.

On to “Streptococcus pneumoniae isolate 21 (PBP alleles 1a 2b 2x: 1_0_0, serotype: 15A)”, for which the values for the MIC in assay [1] and in assay [2] were at most 0.01 µg/mL and 0.03 µg/mL, respectively.
